Measured values: PubChem BioAssay AID493208 (National Center for Advancing Translational Sciences (NCATS), 2011)
About 340 (0.77%) of roughly 44,000 compounds were called active. About 5% were inconclusive and are not listed. The call rests on the fitted dose curve; in most records, active means well fitted inhibition curve with a large enough effect; inconclusive means small, poorly fitted or top-dose-only effect; inactive means flat fitted curve, though single readings scatter. Some of the results follow.

Assay: Acumen qHTS Assay for Inhibitors of the mTORC1 Signaling Pathway in MEF (Tsc2-/-, p53-/-) Cells: Sytravon;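 further: plate controls were DMSO for no effect and rapamycin for full effect; nearly all actives have a fitted effect of over 50% in size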
Conditions: phospho-rpS6 immunofluorescence/PI, 24 h; series mostly up to 38.3 µM; activity change, negative = inhibition: at the top concentration
Outline: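 Readout is phospho-S6 Alexa 488 signal normalized to PI per well, reported as % active cells with thresholds set from rapamycin (7.5 nM) and DMSO controls. Cells: Tsc2-/-, p53-/- MEFs, 24 hrs compound at 37 C; PI cell number serves as viability.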

Activity change, negative = inhibition, inactive:
Cc1cccc2nc(-c3cccc(NS(=O)(=O)c4ccccc4)c3)cn12 13.3%
CCC(C)NC(=O)CSc1nc2c(sc3ccccc32)c(=O)n1Cc1ccccc1Cl (configuration not stated) 0.807%
Clc1ccccc1CNc1ncnc2c1c(-c1ccccc1)cn2-c1ccccc1 9.51%
Cc1cc(C)c(NC(=O)Nc2ccc3snnc3c2)c(C)c1 -0.334%
Cc1ccc(NC(=O)CSc2nc(-c3ccco3)nc3cc(=O)[nH]n23)cc1C 7.38%
Cc1ccc(C)c(Cn2c3ccccc3c3cnn(CC(=O)NCc4ccccc4)c(=O)c32)c1 -14.2%
Fc1ccccc1Cn1c(-c2ccccc2)nc2ccccc21 -25.1%
COCCCNC(=O)CSc1nc2c(sc3ccccc32)c(=O)n1CCCC(=O)NCCOC -18.8%
Cc1ccccc1OCc1nnc(SCc2cc(=O)c3cccc(F)c3[nH]2)n1C -13%
CC(=O)c1ccc(NC(=O)COCc2cc(-c3ccco3)on2)cc1 -3.93%
COc1cccc(N2CC(NC(=O)c3cccc(OC)c3OC)CC2=O)c1 (configuration not stated) 0.802%
COc1ccc2c(c1)c1c(c(=O)n(-c3cccc(Cl)c3)c(=O)n1CC(=O)N1CCCC1)n2C -4.62%
Cc1cc(NC(=O)C2CCN(S(=O)(=O)c3ccc4[nH]c(=O)oc4c3)CC2)ccc1Br -0.118%
CCC1CCCCN1CCCNC(=O)CN1C(=O)CSc2ccc(S(=O)(=O)N3CCOCC3)cc21 (configuration not stated) 10.7%
CCOC(=O)Cn1nc(C)c(NC(=O)COc2ccc(Cl)cc2C)c1C 0.357%
COc1ccc(/C=C\C(=O)NC2CC(=O)N(c3ccccc3)C2)cc1OC (configuration not stated) -1.26%
COc1cc(NC(=O)c2nc(-c3ccncc3)no2)cc(OC)c1OC -21.2%
Cc1ccc(NC(=O)C(Cc2c[nH]c3ccccc23)NC(=O)OCC(C)C)cc1 (configuration not stated) 1.15%
Cc1ccc(CN(C(=O)COc2c(C)cccc2C)C2CCS(=O)(=O)C2)o1 (configuration not stated) -2.97%
COC(=O)c1nc2n(n1)C(c1cc(OC)ccc1OC)C(C(=O)Nc1ccc(C)cc1C)=C(C)N2 (configuration not stated) 2.4%
Cc1ccc(Cl)cc1N1CCN(CCNC(=O)Nc2ccccc2Cl)CC1 -20.3%
CC(C)(C)C(=O)NCCc1csc2nc(-c3ccc(F)cc3)nn12 7.35%
Cc1ccc2oc3c(c(=O)c2c1)C1(C(=O)N(C)c2ccccc21)N(CCCO)C3=O (configuration not stated) -5.1%
O=C(CCS(=O)(=O)c1cccc2nsnc12)Nc1ccc(F)cc1 -22.3%
Cc1ccc(Cl)cc1NC(=O)C(=O)NCC(c1cccnc1)N1CCc2ccccc21 (configuration not stated) -2.18%
COc1ccc2oc(-c3ccc(C)c(NC(=O)COc4cc(C)cc(C)c4)c3)nc2c1 -3.34%
CSc1cccc(NC(=O)C2CCN(C(=O)c3cnn(-c4ccccc4)c3-n3cccc3)CC2)c1 -8.22%
Cc1ccc(-n2nnc(C(=O)Nc3cc(F)ccc3F)c2C)cc1F 0.357%
COc1ccccc1NC(=O)c1sc2nc3c(cc2c1N)CCCCCC3 -16.9%
O=C(c1ccccc1)N1c2ncnn2C2(CCCCC2)[C@@H]2CCCC[C@@H]21 -0.421%
Cc1ccccc1C(=O)Nc1cc(-c2ccc(Cl)cc2)nn1-c1ccccc1 -8.25%
Cc1ccc2c(c1)C(c1ccc(F)cc1)N(C(=O)c1ccc(OC(C)C)cc1)CC(=O)N2 (configuration not stated) -2.65%
Cc1nn(-c2ccc(N3CCOCC3)nn2)c(C)c1CCC(=O)NCc1ccc(F)cc1 3.29%
COc1cc2[nH]c(=O)n(CCCC(=O)N3CCN(c4cccc(C(F)(F)F)c4)CC3)c(=O)c2cc1OC 6.14%
COc1ccc(C(=O)CSc2c(C(C)C)cnc3c2c(=O)n(C)c(=O)n3C)cc1 2.95%
Cc1ccc(NC(=O)C2CCN(c3cc(C)nc4c(-c5ccc(Cl)cc5)c(C)nn34)CC2)c(C)c1 -5.94%
COc1ccccc1N1CCN(C(=O)CN2C(=O)COc3ccc(S(=O)(=O)N4CCC(C)CC4)cc32)CC1 0.622%
Cc1ccn2c(=O)cc(COc3ccc(NC(=O)c4ccccc4F)cc3)nc2c1 -19.6%
CCOc1ccc(NC(=O)CSc2nc3c(oc4ccccc43)c(=O)n2CCOC)cc1 -1.07%
CCOc1ccc(CCNC(=O)CN2N=C(c3ccccc3)CCC2=O)cc1OCC 7.05%
CC(=O)c1ccc(NC(=O)CSc2nc(-c3cccc(F)c3)nc3c2c(=O)n(C)c(=O)n3C)cc1 -13.3%
CN1C(C(=O)Nc2ccc(F)cc2F)=CC(c2ccc3c(c2)OCO3)=NS1(=O)=O 1.14%
Cc1cc(C)cc(NC(=O)CN2C(=O)c3ccccc3Sc3ncccc32)c1 -9.79%
CCCCN(CC)CCCNC(=O)c1cc2c(=O)[nH]c3ccccc3c2s1 -8.78%
COc1ccc(CNC(=O)c2ccc3c(c2)nc2n3CCOC2)c(OC)c1 -17.2%
Cc1ccc(-c2cc(C(F)(F)F)c(C#N)c(SCC(=O)Nc3ccccc3)n2)cc1 2.55%
CCOc1cccc(C2c3c(-c4cc(C)ccc4O)n[nH]c3C(=O)N2Cc2ccco2)c1 (configuration not stated) 2.72%
Cc1ccc(CNC(=O)c2cc3c(=O)n(Cc4cccnc4)ccc3nc2C)cc1 -5.65%
CCOC(=O)C(C)NC(=O)c1c(C)oc2ncn(CC(C)C)c(=O)c12 (configuration not stated) -1.21%
CCOC(=O)C1CCN(C(=O)c2ccc3c(=O)n4nc(Nc5cc(C)ccc5C)sc4nc3c2)CC1 -6.37%
COc1ccc(OC)c(CCNC(=O)c2csc3c2CCCCC3)c1 -0.441%
CCC(=O)C1=C(c2cccc(OC)c2)N(C(=O)CC)n2c(nnc2C2CCCCC2)S1 0.476%
Cc1cccc(C)c1OCc1nc2c3c(-c4ccccc4)c(-c4ccccc4)oc3ncn2n1 -10.2%
COc1cccc(NC(=O)C2CCN(c3nn4cc(-c5ccc(F)cc5)nc4s3)CC2)c1 2.29%
Cc1ccc(NC(=O)Cn2c(=O)oc3cc(S(=O)(=O)NCc4ccccc4)ccc32)cc1 -1.12%
CCn1cc(C(=O)N2CCN(c3ccc(C(C)=O)cc3)CC2)c2cc(OC)c(OC)cc2c1=O 2.37%
Cc1cccc2c1-c1sc(C(=O)N(C)c3cccc(C(F)(F)F)c3)cc1CO2 -0.498%
Cc1csc2nc(COc3ccccc3NC(=O)c3ccc(C(C)(C)C)cc3)cc(=O)n12 12.6%
CCNC(=O)c1nn(-c2ccccc2C)nc1CO 0.189%
CC(=O)C1=C(c2ccc(C)c(C)c2)N(C(C)=O)n2c(nnc2-c2ccc(Cl)cc2)S1 -1.85%
Cc1cccc(CNC(=O)CCCn2c(=O)c3cccn3c3ccc(F)cc32)c1 0%
O=C(Cn1c(=O)n(-c2ccccc2Cl)c(=O)c2sc3ccccc3c21)NC1CCCCC1 -11.8%
N#Cc1cccc(NC(=O)C2CCN(S(=O)(=O)c3ccc4[nH]c(=O)ccc4c3)CC2)c1 0.054%
Cc1ccccc1-n1nc(CO)c(C(=O)NCc2cccs2)n1 1.89%
Cc1ccc(CN2CCN(CC(=O)Nc3ccc(C)c(C)c3)S2(=O)=O)cc1 -4.12%
Cc1c(NC(=O)c2nc3ccccc3nc2N2CCCCC2)cccc1[N+](=O)[O-] -2.67%
Cc1ccccc1OC(=O)CSc1nnc(-c2ccc(F)cc2)o1 4.1%
CCOC(=O)c1cc(C)n(CC2CCC(C(=O)Nc3ccc(C)c(F)c3)CC2)c1C (configuration not stated) -6.34%
Cc1ccc(C(=O)Nc2ccc(-c3nc4ccccc4s3)cc2C)cc1C 2.95%
COC(=O)c1ccccc1NC(=O)Nc1nnc(N2CCC(C)CC2)s1 -6.14%
CCOc1cc(CNC(=O)NC2COc3ccc(OC)cc3C2)cc(OCC)c1OCC (configuration not stated) -0.297%
COc1ccc(N2CC(NC(=O)CCCc3ccccc3)CC2=O)cc1 (configuration not stated) 2.64%
Cc1c(Cl)cccc1NC(=O)CN(CCc1ccccc1)S(=O)(=O)c1ccccc1 18.9%
Cc1cccc(C(=O)N2CCc3cc(CNS(=O)(=O)c4ccc(Cl)s4)ccc32)c1 -19.7%
Cc1ccccc1OCC(=O)Nc1ccc(-c2nc3ncccc3o2)cc1 -1.8%
CCCCN(CC)CCNC(=O)c1cc2c(=O)[nH]c3ccccc3c2n1C -4.81%
CCCCn1c(NCc2ccc(OC)cc2O)nc2ccccc21 5.56%
O=C(NCc1ccc(F)cc1)c1ccc2c(O)c(S(=O)(=O)c3ccccc3)c(=O)[nH]c2c1 3.83%
O=C(NCc1ccccc1)c1ccc(CSc2nc3cccnc3n2Cc2cccc(F)c2)cc1 -2.77%
CCCCn1nc(NC(=O)c2cccc(Cl)c2)c2cc3ccccc3nc21 0.556%
Cc1ccccc1NS(=O)(=O)c1ccc2[nH]cc(C(=O)N3CCCCC3)c(=O)c2c1 1.29%
COc1ccc(C)cc1-n1nnc(-c2nc(-c3ccccc3Cl)no2)c1N -18.6%
Cc1ccccc1CN1C(=O)c2ccccc2Sc2ccc(C(=O)N3CCCC3)cc21 -1.1%
CCCc1nc2ccccc2n2c(-c3ccccc3)c3c(=O)n(C)c(=O)n(C)c3c12 -0.73%
CCN(C(=O)c1coc(=O)c2ccccc12)c1ccccc1C 0%
CC(C)c1ccc(C(=O)Nc2cc(-c3ccccc3F)nn2-c2ccccc2)cc1 1.46%
Cc1ccc(-c2nnn3c2nc(NCCc2ccc(Cl)cc2)c2ccccc23)cc1 0.739%
CCCOc1ccc(CNC(=O)Cn2ncn3c(cc4sc(CC)cc43)c2=O)cc1 -7.79%
Cc1c(C(=O)N2CCCCCC2)c(S(=O)(=O)NCc2ccc(Br)cc2)c(C)n1C -3.18%
Cc1ccc(-c2nc3ccccn3c2Nc2ccccc2C)s1 -4.85%
COC(=O)c1ccc(NC(=O)NCCn2nnc3cc(S(=O)(=O)N(C)C)ccc32)cc1 3.31%
CCOc1ccc(CNC(=O)c2ccc3nc(C(C)C)oc3c2)cc1 0%
COc1ccc(Nc2cc(C(=O)NC3CCC(C)CC3)c3ccccc3n2)cc1OC (configuration not stated) -7.39%
CCOc1ccc(C2Nc3c(C)cccc3-c3cc(C)nn32)cc1 (configuration not stated) -12.6%
CCOc1ccccc1C(=O)Nc1c(C(=O)Nc2ccc(F)cc2)oc2ccccc12 -16.9%
Cn1c(=O)c(=O)n(C)c2cc(S(=O)(=O)CCC(=O)Nc3ccc(F)cc3)ccc21 -3.27%
Cc1oc2ncnc(N3CCOCC3)c2c1C(=O)N(Cc1ccccc1)C(C)C 3.77%
